This passage reports switch fluorescence ratio results from the supplement of paper PMC10126150.

The data set deals with ATP. The data set is described as follows: switch fluorescence ratio, 500 uM ATP over buffer (Cy3 cluster intensity, sum of 5 cycles each) (fold (ratio)); higher = stronger signal-on switching upon ATP binding; sequences stand for … in TCGTCGGCAGCGTCAGATGTGTATAAGAGACAGTTTTTTTTTTTTTTTTTTTTTTTTT…TC. The settings on record: aptamer strand: ATP DNA aptamer (quencher-CACCTGGGGGAGTATTGCGGAGGAAGG + anchor), 100 nM annealed; ATP concentration: 500 uM; one replicate. In outline: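 Cy3-labelled switching-strand clusters on a modified Illumina MiSeq flow-cell were annealed to 100 nM quencher-labelled ATP aptamer and imaged first in selection buffer, then after 15 min with 500 uM ATP at 22 °C. NaOH stripping and re-annealing separated each of five buffer/ATP cycles, and clusters outside 100-1000 RFU were excluded. The fluorescence ratio sums target-cycle Cy3 intensity over buffer-cycle Cy3 intensity per cluster and averages it per switch-domain sequence.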

Values marked as one replicate rest on one cluster of the flow cell; about a third of the high ones do not repeat.
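Note: ATP exposure 15 min at 22 °C before imaging.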

On to CGAGCTATTC, for which the switch fluorescence ratio is 3.54.

For ATGCGTAGCC, the switch fluorescence ratio turned out to be 1.03.

ATCATATTT: the switch fluorescence ratio turned out to be 1.04.

Regarding TCTCCTAAGC, the switch fluorescence ratio was determined as 1.1.

On to AATTGGGTGA, for which the switch fluorescence ratio was 1.02.

Regarding GGCAGGCCCG, the switch fluorescence ratio stood at 1.03.

With GCAATAGGCT, the switch fluorescence ratio came out at 1.19.

Take GTGGTTTCAT: the switch fluorescence ratio is 0.973.

As for AGGCCTAA, the switch fluorescence ratio was 0.975.

Turning to TATCTCGCAG, the switch fluorescence ratio was 1.09.

On to GGTTTATACA, for which the switch fluorescence ratio was 1.

In the case of TCGACAAGTG, the switch fluorescence ratio worked out at 1.23.

As for CTAATTGTTC, the switch fluorescence ratio amounted to 0.982.

CCCGCATTTA: the switch fluorescence ratio is 5.45.

For TATTTCGTAT, the switch fluorescence ratio came out at 0.999.

In the case of GCCGCTCGCA, the switch fluorescence ratio amounted to 1.21.

On to TCGGCGCAG, for which the switch fluorescence ratio worked out at 1.07.

For GGATGCTCCG, the switch fluorescence ratio was 0.968.

AATCCTGATA: the switch fluorescence ratio stood at 1.03.

AGTTGCATCA: the switch fluorescence ratio turned out to be 0.979.

With TGTCGAATCA, the switch fluorescence ratio worked out at 0.959.

On to CAGGATAGGA, for which the switch fluorescence ratio is 1.18.

Consider GGTCTGTACG, for which the switch fluorescence ratio was determined as 0.993.

As for ATAAAATTCT, the switch fluorescence ratio is 0.993.

Regarding ACGAAAAGAT, the switch fluorescence ratio was determined as 1.03.

Turning to TTGGACGCTG, the switch fluorescence ratio is 1.

TTGCACGATA: the switch fluorescence ratio was 1.12.

As to TACCCTTTA, the switch fluorescence ratio was 1.01.

GCCTTAGAGC: the switch fluorescence ratio was 0.997.

Take CTAGCGCGAA: the switch fluorescence ratio came to 1.09.

For the sequence TAGTCGTGTT, the switch fluorescence ratio worked out at 1.

For the sequence AGTCAGCCGC, the switch fluorescence ratio was 1.06.

Take GATCCGTGTT: the switch fluorescence ratio was found to be 1.02.

In the case of CTGTGGTGT, the switch fluorescence ratio is 1.02.

In the case of GATGCCGCGA, the switch fluorescence ratio stood at 3.22.

On to GAGTCGTTTT, for which the switch fluorescence ratio worked out at 1.01.

Consider GCTATGAGTG, for which the switch fluorescence ratio was found to be 1.02.

As to GCTACAGATG, the switch fluorescence ratio turned out to be 1.03.

Take GGCACGACAT: the switch fluorescence ratio was 1.12.

As for TGTGTAGCGC, the switch fluorescence ratio came out at 0.996.

GTTAGACGC: the switch fluorescence ratio was 1.06.

Consider CGAGCCGTTC, for which the switch fluorescence ratio came to 0.967.

Take CCGTTGAGA: the switch fluorescence ratio turned out to be 1.04.

Consider TCTCACGTCA, for which the switch fluorescence ratio was determined as 1.29.

In the case of CACATGGTTC, the switch fluorescence ratio worked out at 1.05.

With TGCCAGCGGT, the switch fluorescence ratio came to 0.996.

For the sequence CGCCTGAAGA, the switch fluorescence ratio turned out to be 1.03.

With GCGGGCGCTA, the switch fluorescence ratio amounted to 0.968.

As to ATTGTATGAG, the switch fluorescence ratio amounted to 0.997.

Consider ATCACGAGCT, for which the switch fluorescence ratio is 1.02.

Consider GTTTAATAGT, for which the switch fluorescence ratio came out at 0.993.

With GCTCACTACA, the switch fluorescence ratio is 1.08.

For GGCGTGGTCG, the switch fluorescence ratio amounted to 1.05.

TAAATAAAAG: the switch fluorescence ratio turned out to be 0.987.

With GTGTCGGTGT, the switch fluorescence ratio came out at 0.99.

As to CATCAAAGAC, the switch fluorescence ratio was found to be 1.58.

In the case of CAAATTTGCA, the switch fluorescence ratio was determined as 1.02.

With TCGGGGTGGT, the switch fluorescence ratio was determined as 1.02.

On to GACCTAGGTG, for which the switch fluorescence ratio worked out at 1.74.

In the case of TAGCTTTTAC, the switch fluorescence ratio was 3.42.

As for TGACTCACAT, the switch fluorescence ratio was 1.26.

On to AGGGGGAGG, for which the switch fluorescence ratio is 0.948.

For the sequence ATACCACTTG, the switch fluorescence ratio was found to be 0.987.

With TTGGAACG, the switch fluorescence ratio is 0.976.

On to GCCGGGACGT, for which the switch fluorescence ratio is 0.993.

As for GAGCGGTCCC, the switch fluorescence ratio was determined as 1.

TACCTTTCTC: the switch fluorescence ratio stood at 1.02.

Consider TCCATGGCCC, for which the switch fluorescence ratio amounted to 1.04.

Turning to GAGAGGGATC, the switch fluorescence ratio came to 1.08.

For TAAGGTGAAC, the switch fluorescence ratio is 1.05.

For the sequence TTATTCCCCT, the switch fluorescence ratio was found to be 1.05.

Consider ATTTTCCACG, for which the switch fluorescence ratio worked out at 1.46.

For AAACTTGC, the switch fluorescence ratio stood at 1.12.

Regarding TATGAGGTAT, the switch fluorescence ratio was 0.983.

For the sequence ATGCCATTCC, the switch fluorescence ratio is 1.34.

As to ACAGCAAGCA, the switch fluorescence ratio was 1.19.

With CTGTGCCGG, the switch fluorescence ratio amounted to 1.01.

For CAGAAAACGG, the switch fluorescence ratio is 1.05.

On to CGTGAGATCG, for which the switch fluorescence ratio came to 1.04.

Consider GCCGGTCTTG, for which the switch fluorescence ratio worked out at 0.937.

With AACGTTAATA, the switch fluorescence ratio was 0.953.

With CAACTTTATC, the switch fluorescence ratio was 0.989.

For CCCGACGCGG, the switch fluorescence ratio is 4.57.

ATGCGGCAT: the switch fluorescence ratio is 0.986.

As to GATGAAGGTC, the switch fluorescence ratio turned out to be 0.994.

On to GTAGGTGTCG, for which the switch fluorescence ratio turned out to be 0.999.

For GCAAGTACTG, the switch fluorescence ratio turned out to be 1.43.

For the sequence GTTAGTGACA, the switch fluorescence ratio turned out to be 1.02.

On to CGTATTAGGG, for which the switch fluorescence ratio was found to be 0.908.

Regarding CGGCGCAGT, the switch fluorescence ratio was found to be 1.22.

Consider TATAGTCCAA, for which the switch fluorescence ratio worked out at 1.04.

As for ACGTCTTGTT, the switch fluorescence ratio was found to be 0.974.

As for GCCTGAGATA, the switch fluorescence ratio stood at 0.947.

For AACTGGGAAG, the switch fluorescence ratio was 1.

Consider GTCCTTCTAT, for which the switch fluorescence ratio was 1.03.

Consider CATTAGCAG, for which the switch fluorescence ratio amounted to 1.11.

For the sequence TAACGGCGAA, the switch fluorescence ratio came to 1.03.

As to GAGTGGTGAA, the switch fluorescence ratio came out at 1.02.

As for ATTCGGGCCC, the switch fluorescence ratio stood at 1.01.

In the case of ACGCGCGGGG, the switch fluorescence ratio was 1.05.

CGCTGCCACG: the switch fluorescence ratio is 0.994.

In the case of GCAGCTGTGA, the switch fluorescence ratio was found to be 0.997.

Regarding CGGAAGTGGA, the switch fluorescence ratio came to 1.

CTTCTTTATT: the switch fluorescence ratio is 1.06.

For the sequence TATAATAACT, the switch fluorescence ratio was 0.986.

For the sequence CCCGTTACT, the switch fluorescence ratio was found to be 1.24.

As for TTAACAAGGG, the switch fluorescence ratio came to 0.987.

On to AGCAATCCGG, for which the switch fluorescence ratio was determined as 1.49.

Take ACTGTGCTAA: the switch fluorescence ratio came out at 1.06.

As to TCTACGAGCC, the switch fluorescence ratio was 1.16.

Consider GCGGCTTCA, for which the switch fluorescence ratio was determined as 1.02.

CCGGTGCTCT: the switch fluorescence ratio was determined as 1.25.

With ATTGCAGATT, the switch fluorescence ratio was 0.953.

For the sequence ATGCCGCTGG, the switch fluorescence ratio was 0.995.

As to CAAAAATAGA, the switch fluorescence ratio stood at 1.03.

Regarding TCCTGAGTAC, the switch fluorescence ratio turned out to be 1.01.

With ACCTGAATCG, the switch fluorescence ratio is 1.1.

For GCTCTAGGGG, the switch fluorescence ratio stood at 1.05.

Consider AGCTACGCAT, for which the switch fluorescence ratio came out at 1.91.

Take TGGGCCGGT: the switch fluorescence ratio was 1.04.
